Hit rate of the full screen: of about 310,000 compounds, about 2,200 (0.71%) showed an effect of 50% or more. Effects have a minus sign here. This is one part of the list.
These compounds were tested against human ether-à-go-go-related gene (hERG) potassium channel (human, UniProt Q12809) (assay: primary screen, population patch clamp on CHO cells stably expressing hERG).
Chain of human ether-à-go-go-related gene (hERG) potassium channel (Q12809 whole entry, looked up): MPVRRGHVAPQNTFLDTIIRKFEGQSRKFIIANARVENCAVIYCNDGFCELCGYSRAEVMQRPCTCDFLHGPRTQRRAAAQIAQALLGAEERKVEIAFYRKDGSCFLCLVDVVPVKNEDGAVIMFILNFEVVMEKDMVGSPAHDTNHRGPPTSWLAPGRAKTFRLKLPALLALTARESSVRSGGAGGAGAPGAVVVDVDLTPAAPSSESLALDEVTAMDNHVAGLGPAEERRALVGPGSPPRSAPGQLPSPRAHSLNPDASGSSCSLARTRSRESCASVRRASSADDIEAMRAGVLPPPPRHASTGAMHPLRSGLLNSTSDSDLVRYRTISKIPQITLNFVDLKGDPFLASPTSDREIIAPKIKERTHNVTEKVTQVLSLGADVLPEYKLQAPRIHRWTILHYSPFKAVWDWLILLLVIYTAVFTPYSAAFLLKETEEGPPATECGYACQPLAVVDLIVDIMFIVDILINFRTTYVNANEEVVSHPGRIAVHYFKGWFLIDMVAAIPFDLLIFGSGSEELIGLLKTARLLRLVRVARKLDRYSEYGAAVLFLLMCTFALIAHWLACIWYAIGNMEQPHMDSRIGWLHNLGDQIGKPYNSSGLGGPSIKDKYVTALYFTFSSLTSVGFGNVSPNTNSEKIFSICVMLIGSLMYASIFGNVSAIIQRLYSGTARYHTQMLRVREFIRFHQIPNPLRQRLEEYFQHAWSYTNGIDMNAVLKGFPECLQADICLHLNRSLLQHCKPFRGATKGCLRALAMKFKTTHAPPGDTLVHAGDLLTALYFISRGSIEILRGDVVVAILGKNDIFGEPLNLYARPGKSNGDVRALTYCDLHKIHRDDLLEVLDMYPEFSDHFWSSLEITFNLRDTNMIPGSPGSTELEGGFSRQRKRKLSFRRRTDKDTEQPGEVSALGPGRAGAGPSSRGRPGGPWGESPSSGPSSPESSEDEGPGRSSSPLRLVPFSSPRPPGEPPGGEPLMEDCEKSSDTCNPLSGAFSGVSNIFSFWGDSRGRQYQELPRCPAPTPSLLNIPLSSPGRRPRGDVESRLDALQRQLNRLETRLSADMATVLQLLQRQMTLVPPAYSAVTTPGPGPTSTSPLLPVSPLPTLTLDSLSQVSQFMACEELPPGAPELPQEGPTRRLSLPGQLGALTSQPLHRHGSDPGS

| SMILES | hERG current change (%, negative = inhibition) at 1uM |
| --- | --- |
| COc1cc(/C=C2\SC(N3CCC(C)CC3)=NC2=O)ccc1O | 4% |
| CCOc1ccc(CCNC(=O)COC(=O)c2cc(S(=O)(=O)N3CCOCC3)ccc2F)cc1OCC | -4.26% |
| C=CCNCc1cc(=O)n2c(-c3ccccc3)csc2n1.O=C(O)C(=O)O | 13.2% |
| CC(C)OCCCNC(=O)Cn1ccc2cc(S(=O)(=O)N3CCCCC3)ccc21 | 11.6% |
| O=C(CCc1nnc2ccc(N3CCC4(CC3)OCCO4)nn12)NCc1ccccc1Cl | 18.4% |
| CCn1cc(CNC(=O)NC2CCCCC2)c(C)n1 | 15.7% |
| Cc1ccc(S(=O)(=O)N(CC(=O)Nc2ccc(C(N)=O)cc2)C(=O)N2CCN(C)CC2)cc1 | -7.78% |
| CCN(CC)c1ccc(S(=O)(=O)N2CCCCC2)cc1NC(=O)C1CSC2(C)CCC(=O)N12 (centres unmarked) | 0.223% |
| CC1=C(C(=O)O)N2C(=O)C(NC(=O)c3ccccc3Cl)C2SC1 (centres unmarked) | 8.78% |
| CCC(=O)NC(=S)Nc1cccc(C(C)=O)c1 | 5.61% |
| COc1cccc2sc3ccc(C#CC4(N)CCCCC4)cc3c(=O)c12 | 16.7% |
| N#CC12C(N)=NC3(OCCO3)C1(C#N)C1=C(CCC1)NC2c1ccccc1 (centres unmarked) | 12.2% |
| CCCOC(=O)c1[nH]c2c(c1C)C(=O)CC(c1cccs1)C2 (centres unmarked) | 7.52% |
| CN1CCS/C1=C/C=C1\SC(=S)N(CC(=O)O)C1=O | 6.31% |
| CCSc1nc(C(F)(F)F)cc(=O)n1-c1ccccc1 | -4.15% |
| CCN1C(=O)/C(=C/C=C2\N(CC)c3cc(S(=O)(=O)N(C)C)ccc3N2c2ccccc2)SC1=S | 2.96% |
| CC(C)NS(=O)(=O)c1ccc(OCC(=O)N2CCN(Cc3ccc4c(c3)OCO4)CC2)c(Cl)c1 | -3.32% |
| Cn1c(NCCc2ccccc2)cc(=O)n(C)c1=O | 11.8% |
| C/C(=N\NC(=S)Nc1c(C)cccc1C)c1cc2ccccc2o1 | 17.5% |
| O=C(CCCCCCCCCCC(=O)NCc1cccnc1)NCc1cccnc1 | 4.01% |
| COc1cccc(NC(=O)CSc2nnc3c(n2)[nH]c2ccc(C)cc23)c1 | 13.9% |
| COc1cc(/C=C/C(=O)c2ccc(C)cc2)ccc1OCC#N | 3.81% |

| SMILES | hERG current change (%, negative = inhibition) at 1uM |
| --- | --- |
| COc1ccc(NC(=O)Cn2c(-c3ccccc3)cn(-c3ccc(C)cc3)c2=O)cc1 | 11% |
| COc1cc(OC)c(OC)cc1CN1CCN(Cc2cccn2C)CC1.O=C(O)C(=O)O | 7.26% |
| Cc1sc2ncn(-n3c(C)ccc3C)c(=O)c2c1C | 11.5% |
| O=C(N/N=C/c1ccc2c(c1)OCO2)C(=O)Nc1cccc(Cl)c1 | 16.1% |
| COc1cccc(Sc2ccccc2/C=N/NC(N)=O)c1 | 13.8% |
| CCCCC(=O)Nc1ccc(S(=O)(=O)N2CCCCC2c2cccnc2)cc1 (centres unmarked) | -2.88% |
| CCOc1ccccc1NC(=O)Cn1nnc(C(=O)NCCc2ccc(OC)c(OC)c2)c1N | 10.3% |
| On1onc2c3cc(-c4ccccc4)nc3ccc21 | 3.3% |
| COc1ccc2cc3cc(C(=O)NCC4COc5ccccc5O4)oc3nc2c1 (centres unmarked) | 15.1% |
| O=C(Nc1nnc(SCc2ccc(Cl)cc2Cl)s1)C1COc2ccccc2O1 (centres unmarked) | 8.17% |
| CCC(C)OC(=O)C1=C(C)NC(=O)NC1c1ccc(F)cc1 (centres unmarked) | 7.72% |
| CCOC(=O)c1c(C)[nH]c(C(=O)OCC(=O)N2c3ccccc3CC2C)c1C (centres unmarked) | 9.65% |
| Cc1nc2cc3nc(C)sc3cc2s1 | 3.19% |
| O=C(NC1CCSc2ccccc21)c1cc([N+](=O)[O-])ccc1N1CCOCC1 (centres unmarked) | 2.08% |
| CCNc1ccc(C(=O)OCC(=O)NCc2ccc(C)cc2)cc1[N+](=O)[O-] | 19.2% |
| COc1ccc(S(=O)(=O)N2CCCC2)cc1C(=O)N1CCOCC1 | 7.3% |
| O=C(NCCC1CCCCN1S(=O)(=O)c1cccs1)C(=O)NCc1ccccc1 (centres unmarked) | 8.42% |
| C#Cc1ccc([C@H]2C=C(C(=O)NC3CC3)O[C@@H](OCC)[C@@H]2CCCO)cc1 | 10.2% |
| CN(Cc1ccccc1)C(=O)C(C(=O)c1ccc(F)cc1)n1cc(Cl)ccc1=O (centres unmarked) | 3.03% |
| CC(C)N(c1ccccc1)c1ccc(NC(=S)NCCN(C)C)cc1 | 11.7% |
| Cc1c(N/C=C(\Cl)C(=O)C(F)(F)F)c(=O)n(-c2ccccc2)n1C | 5.98% |
| O=C(NC(=S)Nc1ccc2c(c1)OCCO2)c1ccccc1F | 8.56% |

Reference: paper PMC4336329 (PLoS ONE, 2015)
